Test [1] concerns Dengue virus type 2 strain 16681. To be noted: mouse, in vivo.
Another test relates to HUVEC. In kind it is cell-based, human.
For test [2], the system named is DENV-infected endothelial cells. In kind it is cell-based. The settings on record: for DENV-induced cell death (percent TUNEL+ apoptotic cells): DENV MOI of 1, 5 or 10, 4 μM zVAD-FMK or 25 μM fumonisin B1 from 30 min before infection, FIG. 6E.
For another test, the system named is HUVEC monolayer. The settings on record: 24 h.

Several values for one entry are separate records, joined by “and”; a condition that tells them apart may be missing. Identical values can stand only once.

Regarding `COC(=O)CC(NC(=O)OC(C)(C)C)C(=O)CF` [Boc-D-FMK], in test [1], the “percentage of mice that developed hemorrhage” value is listed as “greatly reduced” and the severity of hemorrhage result was “greatly reduced”.
Turning to `CC(=O)N[C@@H](CS)C(=O)O` [NAC, N-acetyl cysteine], in the test on HUVEC, the “effect of TNF-α on DENV-induced endothelial cell death (MTT cell viability)” value is recorded as “reversed”. The “DENV-induced endothelial cell death (percent TUNEL+ apoptotic cells)” value in test [2] (24 h) is given as “partially reduced”.
Turning to `COc1cc(C(C)=O)ccc1O` [apocynin, 4-hydroxy-3-methoxyacetophenone], in test [1], the “kind of hemorrhage developed” value was “mild and local hemorrhage”; the percent hemorrhage development was 28.6% and 21.4%.
As to `CCCC[C@@H](C)[C@@H](OC(=O)C[C@@H](CC(=O)O)C(=O)O)[C@H](C[C@@H](C)C[C@H](O)CCCC[C@@H](O)C[C@H](O)[C@H](C)N)OC(=O)C[C@@H](CC(=O)O)C(=O)O` [fumonisin B1], the “DENV-induced cell death (percent TUNEL+ apoptotic cells)” value in test [2] is “significantly reduced”.
With “benzyl-oxycarbonyl-valyl- alanylaspartic acid fluoro-methyl ketone [zVAD-FMK]”, in the test on HUVEC, the “effect of TNF-α on DENV-induced endothelial cell death (MTT cell viability)” value was “reversed”. Moreover, the “effect of TNF-α on endothelial cell permeability (BSA in lower chamber)” value in the test on HUVEC monolayer is given as “to the level of controls”. For the same compound, in test [2], the “DENV-induced cell death (percent TUNEL+ apoptotic cells)” value is “significantly reduced”.

(Values after patent US20120207730A1 (priority 2008, published 2012).)
